T1: RBFOX1 RRM (Homo sapiens, UniProt Q9NWB1 109-208)
T1 sequence: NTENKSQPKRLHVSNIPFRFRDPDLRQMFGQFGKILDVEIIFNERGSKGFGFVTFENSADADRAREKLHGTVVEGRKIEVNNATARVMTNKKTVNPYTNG

B1: GGUGUAG (DNA:RNA)
RNA: GGGAGACCGGAAUUCAGAUUGUCCGGUGUAGUUAAAUCCCGUCGUAGCCACCA
DNA 1: CAATCTGAATTCCGGTCTCCC
DNA 2: TGGTGGCTACGACGGGATT
B2: UUUUAGA (DNA:RNA)
RNA: B1 RNA with G25U, G26U, G28U, U29A, A30G, G31A
DNA 1: CAATCTGAATTCCGGTCTCCC
DNA 2: TGGTGGCTACGACGGGATT
B3: GGGAAUU (DNA:RNA)
RNA: B1 RNA with U27G, G28A, U29A, A30U, G31U
DNA 1: CAATCTGAATTCCGGTCTCCC
DNA 2: TGGTGGCTACGACGGGATT
B4: CGCUAGG (DNA:RNA)
RNA: B1 RNA with G25C, U27C, G28U, U29A, A30G
DNA 1: CAATCTGAATTCCGGTCTCCC
DNA 2: TGGTGGCTACGACGGGATT
B5: AGGCUAG (DNA:RNA)
RNA: B1 RNA with G25A, U27G, G28C
DNA 1: CAATCTGAATTCCGGTCTCCC
DNA 2: TGGTGGCTACGACGGGATT
B6: ACAGUCA (DNA:RNA)
RNA: B1 RNA with G25A, G26C, U27A, A30C, G31A
DNA 1: CAATCTGAATTCCGGTCTCCC
DNA 2: TGGTGGCTACGACGGGATT
B7: UGAUUCU (DNA:RNA)
RNA: B1 RNA with G25U, U27A, G28U, A30C, G31U
DNA 1: CAATCTGAATTCCGGTCTCCC
DNA 2: TGGTGGCTACGACGGGATT
B8: GUGGUAA (DNA:RNA)
RNA: B1 RNA with G26U, U27G, G31A
DNA 1: CAATCTGAATTCCGGTCTCCC
DNA 2: TGGTGGCTACGACGGGATT
B9: UCACGAA (DNA:RNA)
RNA: B1 RNA with G25U, G26C, U27A, G28C, U29G, G31A
DNA 1: CAATCTGAATTCCGGTCTCCC
DNA 2: TGGTGGCTACGACGGGATT
B10: CUCCUAA (DNA:RNA)
RNA: B1 RNA with G25C, G26U, U27C, G28C, G31A
DNA 1: CAATCTGAATTCCGGTCTCCC
DNA 2: TGGTGGCTACGACGGGATT
B11: CAGAGAG (DNA:RNA)
RNA: B1 RNA with G25C, G26A, U27G, G28A, U29G
DNA 1: CAATCTGAATTCCGGTCTCCC
DNA 2: TGGTGGCTACGACGGGATT
B12: GUCACCC (DNA:RNA)
RNA: B1 RNA with G26U, U27C, G28A, U29C, A30C, G31C
DNA 1: CAATCTGAATTCCGGTCTCCC
DNA 2: TGGTGGCTACGACGGGATT
B13: GUUUAAC (DNA:RNA)
RNA: B1 RNA with G26U, G28U, U29A, G31C
DNA 1: CAATCTGAATTCCGGTCTCCC
DNA 2: TGGTGGCTACGACGGGATT
B14: CAACUGA (DNA:RNA)
RNA: B1 RNA with G25C, G26A, U27A, G28C, A30G, G31A
DNA 1: CAATCTGAATTCCGGTCTCCC
DNA 2: TGGTGGCTACGACGGGATT
B15: AACUGUG (DNA:RNA)
RNA: B1 RNA with G25A, G26A, U27C, G28U, U29G, A30U
DNA 1: CAATCTGAATTCCGGTCTCCC
DNA 2: TGGTGGCTACGACGGGATT
B16: CCUGUUA (DNA:RNA)
RNA: B1 RNA with G25C, G26C, A30U, G31A
DNA 1: CAATCTGAATTCCGGTCTCCC
DNA 2: TGGTGGCTACGACGGGATT
B17: AUAUUCU (DNA:RNA)
RNA: B1 RNA with G25A, G26U, U27A, G28U, A30C, G31U
DNA 1: CAATCTGAATTCCGGTCTCCC
DNA 2: TGGTGGCTACGACGGGATT
B18: CUGGGAA (DNA:RNA)
RNA: B1 RNA with G25C, G26U, U27G, U29G, G31A
DNA 1: CAATCTGAATTCCGGTCTCCC
DNA 2: TGGTGGCTACGACGGGATT
B19: AUUCUUC (DNA:RNA)
RNA: B1 RNA with G25A, G26U, G28C, A30U, G31C
DNA 1: CAATCTGAATTCCGGTCTCCC
DNA 2: TGGTGGCTACGACGGGATT
B20: GCCGACG (DNA:RNA)
RNA: B1 RNA with G26C, U27C, U29A, A30C
DNA 1: CAATCTGAATTCCGGTCTCCC
DNA 2: TGGTGGCTACGACGGGATT
B21: CAGGGCA (DNA:RNA)
RNA: B1 RNA with G25C, G26A, U27G, U29G, A30C, G31A
DNA 1: CAATCTGAATTCCGGTCTCCC
DNA 2: TGGTGGCTACGACGGGATT
B22: CGACACC (DNA:RNA)
RNA: B1 RNA with G25C, U27A, G28C, U29A, A30C, G31C
DNA 1: CAATCTGAATTCCGGTCTCCC
DNA 2: TGGTGGCTACGACGGGATT
B23: CGUACGG (DNA:RNA)
RNA: B1 RNA with G25C, G28A, U29C, A30G
DNA 1: CAATCTGAATTCCGGTCTCCC
DNA 2: TGGTGGCTACGACGGGATT
B24: CUUCCAC (DNA:RNA)
RNA: B1 RNA with G25C, G26U, G28C, U29C, G31C
DNA 1: CAATCTGAATTCCGGTCTCCC
DNA 2: TGGTGGCTACGACGGGATT
B25: GGUUAUU (DNA:RNA)
RNA: B1 RNA with G28U, U29A, A30U, G31U
DNA 1: CAATCTGAATTCCGGTCTCCC
DNA 2: TGGTGGCTACGACGGGATT
B26: ACGCCUU (DNA:RNA)
RNA: GGGAGACCGGAAUUCAGAUUGUCCACGCCUUUUAAAUCCCGUCGUAGCCACCA
DNA 1: CAATCTGAATTCCGGTCTCCC
DNA 2: TGGTGGCTACGACGGGATT
B27: GGAGACA (DNA:RNA)
RNA: B1 RNA with U27A, U29A, A30C, G31A
DNA 1: CAATCTGAATTCCGGTCTCCC
DNA 2: TGGTGGCTACGACGGGATT
B28: UAGACCG (DNA:RNA)
RNA: B26 RNA with A25U, C26A, C28A, U30C, U31G
DNA 1: CAATCTGAATTCCGGTCTCCC
DNA 2: TGGTGGCTACGACGGGATT
B29: CAACGUG (DNA:RNA)
RNA: B26 RNA with A25C, C26A, G27A, C29G, U31G
DNA 1: CAATCTGAATTCCGGTCTCCC
DNA 2: TGGTGGCTACGACGGGATT
B30: UGUGGGC (DNA:RNA)
RNA: B1 RNA with G25U, U29G, A30G, G31C
DNA 1: CAATCTGAATTCCGGTCTCCC
DNA 2: TGGTGGCTACGACGGGATT
B31: CAUUAUG (DNA:RNA)
RNA: B1 RNA with G25C, G26A, G28U, U29A, A30U
DNA 1: CAATCTGAATTCCGGTCTCCC
DNA 2: TGGTGGCTACGACGGGATT

Positions count from the first letter of the chain named. The list shows a part of the results.

The assay has as its target T1, RBFOX1 RRM. The experiment in a line: EMSA; HiTS-Eq, 1 nM pool, 10 min; buffer printed only for the single-RNA assays: 10 mM Tris pH 7.5, 150 mM NaCl, 3.4 mM EDTA, 0.001% NP-40, 30 C. Particulars: tags: His6 N-terminal (pET28a); label: 5' 32P. The procedure, abridged: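 Relative association constants, normalised to the cognate motif, were derived by comparing read counts of each RNA species with those of the control reaction. The RNA sequenced was the free fraction, separated by 8% native PAGE after a 10 min equilibration in 50 µL of 1 nM 5′-radiolabelled RNA (7 randomized nucleotides) with increasing concentrations of purified wild-type or mutant RbFox RRM.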
Background: A gel shift assay detects complexes by their altered migration in electrophoresis.
For B1, the binding signal was 0.0135 KA relative to UGCAUGU.

With B2, the binding signal is 0.0163 KA relative to UGCAUGU. B3: the binding signal was 0.0335 KA relative to UGCAUGU. The same measure for B4: 0.0136 KA relative to UGCAUGU; for B5: 0.0195 KA relative to UGCAUGU; for B6: 0.00248 KA relative to UGCAUGU. On to B7, for which the binding signal was 0.0149 KA relative to UGCAUGU. On to B8, for which the binding signal was 0.0116 KA relative to UGCAUGU. On to B9, for which the binding signal is 0.0078 KA relative to UGCAUGU. The same measure for B10: 0.00489 KA relative to UGCAUGU; for B11: 0.0117 KA relative to UGCAUGU; for B12: 0.00647 KA relative to UGCAUGU. B13: the binding signal is 0.0102 KA relative to UGCAUGU. The same measure for B14: 0.00796 KA relative to UGCAUGU; for B15: 0.0131 KA relative to UGCAUGU. The same measure for B16: 0.00818 KA relative to UGCAUGU. The same measure for B17: 0.0027 KA relative to UGCAUGU; for B18: 0.0136 KA relative to UGCAUGU. B19: the binding signal was 0.00177 KA relative to UGCAUGU. The same measure for B20: 0.0176 KA relative to UGCAUGU.

As for B21, the binding signal was 0.0123 KA relative to UGCAUGU.

Take B22: the binding signal is 0.00666 KA relative to UGCAUGU. As for B23, the binding signal is 0.00683 KA relative to UGCAUGU. The same measure for B24: 0.00388 KA relative to UGCAUGU; for B25: 0.00138 KA relative to UGCAUGU; for B26: 0.00619 KA relative to UGCAUGU.

As for B27, the binding signal is 0.0108 KA relative to UGCAUGU. The same measure for B28: 0.00882 KA relative to UGCAUGU; for B29: 0.0072 KA relative to UGCAUGU. For the molecule B30, the binding signal is 0.0102 KA relative to UGCAUGU. As to B31, the binding signal is 0.007 KA relative to UGCAUGU.

These data come from PMC9911399, “Two distinct binding modes provide the RNA-binding protein RbFox with extraordinary sequence specificity”.
